# Data as given in publication PMC13541613.
# Only a part is listed here, and it is no random draw. At the low end of the ranking the order means little.
# Molecular target: ZNF721 DBD1 (UniProt Q8TF20-2)
# Assay: HT-SELEX
# Settings: 20 mM HEPES pH 7, 140 mM KCl, 5 mM NaCl, 1 mM K2HPO4, 2 mM MgSO4, 100 uM EGTA, ZnSO4, 0.1% Tween20; room temperature, 1 h; high values mean tight binding; double strand, one strand shown
row,Sequence,binding signal (relative 10-mer count)
1,AAAACAGTGC,0.00055
2,AACAGTGTTG,0.000688
3,AAAAAGGCAT,0.00266
4,ACAGTGTTTC,0.000321
5,CCCTCCCTCC,0.0107
6,AAACTAGCAT,0.00055
7,AAAAAACAGC,0.00055
8,CCACCCCCCC,0.0122
9,CAGTGTTACC,0.000642
10,AAAACAGGAT,0.000505
11,AGACACTGCT,0.000183
12,CCCTCGCCCC,0.00702
13,CAGTGTCTCC,0.000642
14,AAACAGGATA,0.000275
15,ACAAAAACAG,0.00078
16,ACAGCGTTTC,0.000229
17,ACAGCGTATC,0.000413
18,ACAGAGTACC,0.000367
19,ACAGCATGAC,0.000321

row,Sequence,binding signal (relative 10-mer count)
1,AAAAACTAGC,0.000367
2,AACAGAGTAC,0.000183
3,AAAACAGCAT,0.000917
4,AAAAGCTGCC,0.0372
5,CCTCCCCTCC,0.00812
6,CACCCCCAAC,0.00514
7,ACAGCGTCTC,0.000688
8,CCAGCCCACC,0.00353
9,AACAGCATAC,0.000963
10,AAAAGCTGCA,0.0533
11,GGGTGGGTGA,0.00505
12,AAAAGCTATC,0.129
13,CTCCCTCCCC,0.00927
14,AAAACAGCGG,0.000275
15,AAACAGCACA,0.000596
16,GCTGTTTTTA,0.000321
17,CAGCATGCCC,0.000505
18,AAACAGCATT,0.000138
